For the test, the system named is pCMV-Luc-transformed S. choleraesuis. The note with it: C57BL/6 mice; oral ZAA 2 mg/kg; 2×10^8 CFU/mouse; 48 h; vs vehicle.

This is an account of results in patent US20150374718A1, “Zhankuic Acid A and Analogs thereof and Their Use as an Anti-Inflammatory Agent” (National Cheng Kung University, priority 2014, published 2015).

`C=C(CC[C@@H](C)[C@H]1CC[C@H]2C3=C(C(=O)C[C@]12C)[C@@]1(C)CCC(=O)[C@@H](C)[C@@H]1CC3=O)C(C)C(=O)O` (stereo partly shown) [No. 1, Zhankuic acid A]: the “bioluminescence of infected mice” value is listed as “much weaker bioluminescence”.
